# From the supplement of paper PMC8728848
# This is one part of the list.
# B1: Gal 9 (Homo sapiens), O00182 (protein)
# chain: MAFSGSQAPYLSPAVPFSGTIQGGLQDGLQITVNGTVLSSSGTRFAVNFQTGFSGNDIAFHFNPRFEDGGYVVCNTRQNGSWGPEERKTHMPFQKGMPFDLCFLVQSSDFKVMVNGILFVQYFHRVPFHRVDTISVNGSVQLSYISFQNPRTVPVQPAFSTVPFSQPVCFPPRPRGRRQKPPGVWPANPAPITQTVIHTVQSAPGQMFSTPAIPPMMYPHPAYPMPFITTILGGLYPSKSILLSGTVLPSAQRFHINLCSGNHIAFHLNPRFDENAVVRNTQIDNSWGSEERSLPRKMPFVRGQSFSVWILCEAHCLKVAVDGQHLFEYYHRLRNLPTINRLEVGGDIQLTHVQT
# Experiments:
# Test in all cases: glycan array binding signal (z-score within array); higher = stronger binding
# Details in all cases: glycan notation: IUPAC condensed, linker removed
# [1] = target: Man(a1-2)Man(a1-3)[Man(a1-2)Man(a1-6)]Man(a1-6)[Man(a1-2)Man(a1-2)Man(a1-3)]Man(b1-4)GlcNAc(b1-4)GlcNAc
# Outline: (§1)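 The Consortium for Functional Glycomics database supplied 3228 glycan arrays, of which those lacking an available protein sequence were dropped. The binding signal, a within-array Z-score, was averaged across arrays of the same protein sequence and across linkers. Negative scores can be read as non-binding.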
# [2] = target: Man(a1-2)Man(a1-3)[Man(a1-6)]Man(a1-6)[Man(a1-2)Man(a1-3)]Man(b1-4)GlcNAc(b1-4)GlcNAc
# Outline: as §1
# [3] = target: Man(a1-2)Man(a1-6)[Man(a1-3)]Man(a1-6)[Man(a1-2)Man(a1-2)Man(a1-3)]Man
# Outline: as §1
# [4] = target: Man(a1-2)Man(a1-6)[Man(a1-3)]Man(a1-6)[Man(a1-2)Man(a1-2)Man(a1-3)]Man(b1-4)GlcNAc(b1-4)GlcNAc
# Outline: as §1
# Man(a1-3)[Man(a1-6)]Man = target: Man(a1-3)[Man(a1-6)]Man
# Outline: as §1
# [5] = target: Man(a1-3)[Man(a1-6)]Man(a1-6)[Man(a1-2)Man(a1-3)]Man(b1-4)GlcNAc(b1-4)GlcNAc
# Outline: as §1
# [6] = target: Man(a1-3)[Man(a1-6)]Man(a1-6)[Man(a1-3)]Man
# Outline: as §1
# [7] = target: Man(a1-3)[Man(a1-6)]Man(a1-6)[Man(a1-3)]Man(b1-4)GlcNAc(b1-4)GlcNAc
# Outline: as §1
# [8] = target: Man(a1-3)[Man(a1-6)]Man(b1-4)GlcNAc(b1-4)GlcNAc
# Outline: as §1
# [9] = target: Man(a1-3)[Man(a1-6)]Man(b1-4)GlcNAc(b1-4)[Fuc(a1-6)]GlcNAc
# Outline: as §1
# Man(a1-6)Man = target: Man(a1-6)Man
# Outline: as §1
# Man(b1-4)GlcNAc = target: Man(b1-4)GlcNAc
# Outline: as §1
# MurNAc(b1-4)GlcNAc = target: MurNAc(b1-4)GlcNAc
# Outline: as §1
# Neu5Ac(a2-3)Gal = target: Neu5Ac(a2-3)Gal
# Outline: as §1
# [10] = target: Neu5Ac(a2-3)Gal(b1-3)GalNAc
# Outline: as §1
# [11] = target: Neu5Ac(a2-3)Gal(b1-3)GalNAc(b1-3)Gal(a1-4)Gal(b1-4)Glc
# Outline: as §1
# [12] = target: Neu5Ac(a2-3)Gal(b1-3)GalNAc(b1-4)[Neu5Ac(a2-3)]Gal(b1-4)Glc
# Outline: as §1
# [13] = target: Neu5Ac(a2-3)Gal(b1-3)GalNAc(b1-4)[Neu5Ac(a2-8)Neu5Ac(a2-3)]Gal(b1-4)Glc
# Outline: as §1
# [14] = target: Neu5Ac(a2-3)Gal(b1-3)GalNAc6S
# Outline: as §1
# [15] = target: Neu5Ac(a2-3)Gal(b1-3)GlcNAc
# Outline: as §1
# [16] = target: Neu5Ac(a2-3)Gal(b1-3)GlcNAc(b1-2)Man
# Outline: as §1
# [17] = target: Neu5Ac(a2-3)Gal(b1-3)GlcNAc(b1-2)Man(a1-3)[GlcNAc(b1-4)][Neu5Ac(a2-3)Gal(b1-3)GlcNAc(b1-2)Man(a1-6)]Man(b1-4)GlcNAc(b1-4)GlcNAc
# Outline: as §1
# [18] = target: Neu5Ac(a2-3)Gal(b1-3)GlcNAc(b1-2)Man(a1-3)[Neu5Ac(a2-3)Gal(b1-3)GlcNAc(b1-2)Man(a1-6)]Man(b1-4)GlcNAc(b1-4)GlcNAc
# Outline: as §1
# [19] = target: Neu5Ac(a2-3)Gal(b1-3)GlcNAc(b1-3)Gal(b1-3)GlcNAc
# Outline: as §1
# [20] = target: Neu5Ac(a2-3)Gal(b1-3)GlcNAc(b1-3)Gal(b1-4)GlcNAc
# Outline: as §1
# [21] = target: Neu5Ac(a2-3)Gal(b1-3)GlcNAc(b1-3)GalNAc
# Outline: as §1
# [22] = target: Neu5Ac(a2-3)Gal(b1-3)GlcNAc(b1-4)Gal(b1-4)Glc
# Outline: as §1
# [23] = target: Neu5Ac(a2-3)Gal(b1-3)GlcNAc(b1-6)GalNAc
# Outline: as §1
# [24] = target: Neu5Ac(a2-3)Gal(b1-3)GlcNAc6S
# Outline: as §1
# [25] = target: Neu5Ac(a2-3)Gal(b1-3)[Fuc(a1-4)]GlcNAc
# Outline: as §1
# [26] = target: Neu5Ac(a2-3)Gal(b1-3)[Fuc(a1-4)]GlcNAc(b1-3)Gal(b1-3)[Fuc(a1-4)]GlcNAc
# Outline: as §1
# [27] = target: Neu5Ac(a2-3)Gal(b1-3)[Fuc(a1-4)]GlcNAc(b1-3)Gal(b1-4)[Fuc(a1-3)]GlcNAc
# Outline: as §1
# [28] = target: Neu5Ac(a2-3)Gal(b1-3)[GlcNAc(b1-6)]GalNAc
# Outline: as §1
# [29] = target: Neu5Ac(a2-3)Gal(b1-3)[Neu5Ac(a2-3)Gal(b1-4)]GlcNAc
# Outline: as §1
# [30] = target: Neu5Ac(a2-3)Gal(b1-3)[Neu5Ac(a2-6)]GalNAc
# Outline: as §1
# [31] = target: Neu5Ac(a2-3)Gal(b1-3)[Neu5Ac(a2-6)]GlcNAc(b1-3)[Fuc(a1-3)[Gal(b1-4)]GlcNAc(b1-6)]Gal(b1-4)Glc
# Outline: as §1
# [32] = target: Neu5Ac(a2-3)Gal(b1-3)]Neu5Ac(a2-3)Gal(b1-4)]GlcNAc
# Outline: as §1
binder,measurement,setting,value
B1,glycan array binding signal (z-score),[1],-0.301
same,glycan array binding signal (z-score),[2],-0.328
same,glycan array binding signal (z-score),[3],-0.321
same,glycan array binding signal (z-score),[4],-0.321
same,glycan array binding signal (z-score),Man(a1-3)[Man(a1-6)]Man,-0.316
same,glycan array binding signal (z-score),[5],-0.263
same,glycan array binding signal (z-score),[6],-0.309
same,glycan array binding signal (z-score),[7],-0.32
same,glycan array binding signal (z-score),[8],-0.313
same,glycan array binding signal (z-score),[9],-0.283
same,glycan array binding signal (z-score),Man(a1-6)Man,-0.31
same,glycan array binding signal (z-score),Man(b1-4)GlcNAc,-0.319
same,glycan array binding signal (z-score),MurNAc(b1-4)GlcNAc,-0.279
same,glycan array binding signal (z-score),Neu5Ac(a2-3)Gal,-0.321
same,glycan array binding signal (z-score),[10],-0.323
same,glycan array binding signal (z-score),[11],-0.153
same,glycan array binding signal (z-score),[12],-0.315
same,glycan array binding signal (z-score),[13],-0.323
same,glycan array binding signal (z-score),[14],-0.34
same,glycan array binding signal (z-score),[15],-0.251
same,glycan array binding signal (z-score),[16],-0.253
same,glycan array binding signal (z-score),[17],-0.281
same,glycan array binding signal (z-score),[18],-0.338
same,glycan array binding signal (z-score),[19],0.968
same,glycan array binding signal (z-score),[20],0.431
same,glycan array binding signal (z-score),[21],-0.316
same,glycan array binding signal (z-score),[22],-0.285
same,glycan array binding signal (z-score),[23],-0.246
same,glycan array binding signal (z-score),[24],-0.314
same,glycan array binding signal (z-score),[25],-0.313
same,glycan array binding signal (z-score),[26],-0.311
same,glycan array binding signal (z-score),[27],-0.326
same,glycan array binding signal (z-score),[28],-0.308
same,glycan array binding signal (z-score),[29],-0.332
same,glycan array binding signal (z-score),[30],-0.31
same,glycan array binding signal (z-score),[31],-0.298
same,glycan array binding signal (z-score),[32],-0.318
